According to PMC4336329 (PLoS ONE, 2015):
In all, about 310,000 compounds went through this assay and about 14,000 (4.5%) showed an effect of 50% or more. Effects have a minus sign here. This is one part of the list.

These compounds were tested against human ether-à-go-go-related gene (hERG) potassium channel (human, UniProt Q12809) (assay: primary screen, population patch clamp on CHO cells stably expressing hERG).
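Further: peak tail current of the secondary pulse compared with the same well before compound.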

Sequence of human ether-à-go-go-related gene (hERG) potassium channel (Q12809 whole entry, looked up): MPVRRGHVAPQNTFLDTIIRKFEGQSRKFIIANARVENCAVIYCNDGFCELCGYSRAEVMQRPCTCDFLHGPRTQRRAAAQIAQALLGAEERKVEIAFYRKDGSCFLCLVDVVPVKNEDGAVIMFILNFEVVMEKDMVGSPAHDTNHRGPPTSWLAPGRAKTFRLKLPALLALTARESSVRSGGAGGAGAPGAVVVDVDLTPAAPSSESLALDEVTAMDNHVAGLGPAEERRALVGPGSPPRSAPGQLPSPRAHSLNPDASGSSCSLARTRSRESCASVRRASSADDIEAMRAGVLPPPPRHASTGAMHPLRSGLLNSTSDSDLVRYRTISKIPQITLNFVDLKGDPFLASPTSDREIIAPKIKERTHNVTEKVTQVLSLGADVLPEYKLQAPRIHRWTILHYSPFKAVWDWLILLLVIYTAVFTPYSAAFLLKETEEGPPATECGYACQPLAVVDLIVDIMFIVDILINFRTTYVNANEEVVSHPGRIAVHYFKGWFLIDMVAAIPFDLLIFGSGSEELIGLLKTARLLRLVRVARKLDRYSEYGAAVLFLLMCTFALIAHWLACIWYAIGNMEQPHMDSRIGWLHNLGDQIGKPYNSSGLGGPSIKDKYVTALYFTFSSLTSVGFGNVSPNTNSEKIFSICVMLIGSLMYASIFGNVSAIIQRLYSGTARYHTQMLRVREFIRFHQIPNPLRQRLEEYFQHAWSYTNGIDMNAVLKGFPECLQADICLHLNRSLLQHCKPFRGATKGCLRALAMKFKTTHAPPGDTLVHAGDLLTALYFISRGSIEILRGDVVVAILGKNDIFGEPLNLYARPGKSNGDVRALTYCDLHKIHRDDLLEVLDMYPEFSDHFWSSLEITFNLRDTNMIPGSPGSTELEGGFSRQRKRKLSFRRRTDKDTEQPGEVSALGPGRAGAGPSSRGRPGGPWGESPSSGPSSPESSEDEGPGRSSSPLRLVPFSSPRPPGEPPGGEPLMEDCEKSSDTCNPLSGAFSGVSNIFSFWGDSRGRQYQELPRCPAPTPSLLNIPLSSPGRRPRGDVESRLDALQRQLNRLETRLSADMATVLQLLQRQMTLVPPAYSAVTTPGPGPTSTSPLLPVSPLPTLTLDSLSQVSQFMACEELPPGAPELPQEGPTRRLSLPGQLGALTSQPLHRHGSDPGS

Row | SMILES | hERG current change (%, negative = inhibition) at 10uM
1 | CCCCn1c(N)c(N(CC(C)C)C(=O)c2cccc(S(=O)(=O)N(C)c3ccccc3)c2)c(=O)[nH]c1=O | 11.9%
2 | COC(=O)c1ccc(C2C(C#N)=C(N)Oc3cc(N)ccc32)cc1 (stereo not drawn) | -6.94%
3 | Cc1nn(-c2ccc(Cl)c(Cl)c2)c(=O)c2ccccc12 | -0.0448%
4 | CC(=O)Nc1ccc(S(=O)(=O)NCC(=O)OCC(=O)NC(=O)C2CCCCC2)cc1 | 21.1%
5 | O=C(Nc1ccccc1Cl)c1ccc2nccnc2c1 | 0.448%
6 | COCCNC(=O)c1ccccc1NS(=O)(=O)c1ccc(Br)s1 | 0.678%
7 | CCOc1ccc(NS(=O)(=O)c2ccc(-c3cnc(C4CC4)o3)cc2)cc1 | 16.6%
8 | Cc1ccc(OCC(=O)N(Cc2nnc(-c3ccccc3Cl)o2)C2CC2)cc1C | -44.1%
9 | CCOc1ccc(S(=O)(=O)N2CCN(C(=O)c3ccc(-n4cncn4)c([N+](=O)[O-])c3)CC2)cc1 | -71.5%
10 | O=C(COC(=O)c1ccccn1)NCCCc1ccccc1 | 5.64%
11 | COc1ccc(C(c2nnnn2C2CCCC2)N2CCN(c3ccccc3)CC2)cc1 (stereo not drawn) | -10.7%
12 | Cc1cc2c(C)cc(=O)[nH]c2cc1NC(=O)CCl | 14.3%
13 | O=C1CN(C(=O)c2cccc(F)c2)C(c2ccc(F)cc2)c2cc(F)ccc2N1 (stereo not drawn) | -15.4%
14 | Cc1ccc(C2(c3noc(CN(C)CC4COCCO4)n3)CCCC2)cc1 (stereo not drawn) | 7.16%
15 | O=C(CCC(=O)OCC(=O)c1ccc(-c2ccccc2)cc1)Nc1cccc2cccnc12 | 11%
16 | COc1ccc(-c2c(NC(C)=O)n(C)c3ccccc3c2=O)cc1 | 0.685%
17 | CCCCC(=O)Nc1ccc2c(c1)C(=O)NC2=O | 2.21%
18 | CN(C1CCCCC1)S(=O)(=O)c1cccc(C#N)c1 | 0.523%
19 | Cc1cc(NS(=O)(=O)c2ccc(NC(=O)C(C)Oc3cccc(C)c3C)cc2)nc(C)n1 (stereo not drawn) | 9.74%
20 | CSc1ccccc1NC(=O)CN(C)CC(=O)Nc1cc(C)ccc1C | -2.06%
21 | CC(=O)OCCCN1C(=O)c2cccc3cc(Br)cc(c23)C1=O | 4.74%
22 | CC(=O)c1ccc(NC(=S)NC(=O)/C=C/c2ccco2)cc1 | 11.8%
23 | CC(C(=O)NC1CCCC1)N(Cc1ccc2c(c1)OCO2)C(=O)c1snc(C(N)=O)c1N (stereo not drawn) | -14.6%

Row | SMILES | hERG current change (%, negative = inhibition) at 10uM
24 | CCN1CCN(C(=O)c2c(-c3c(Cl)cccc3Cl)noc2C)CC1 | 20.9%
25 | CCOC(=O)N1CCC(NC(=O)c2cnn3c2NC(c2ccco2)CC3C(F)(F)F)CC1 (stereo not drawn) | -13.5%
26 | CCc1ccc(CC)c(S(=O)(=O)Nc2ccc(O)c(C(=O)O)c2)c1 | -7.87%
27 | CCOC(=O)C(NCCCO)c1ccccc1 (stereo not drawn) | -1.98%
28 | CN(C(=O)c1ccccn1)c1nnc(-c2cccnc2)s1 | 7.9%
29 | O=C(NCC(=O)N(CCN1CCOCC1)C(C(=O)NC1CCCC1)c1cccs1)c1ccco1 (stereo not drawn) | -0.929%
30 | c1csc(-c2nc3ccccn3c2NC2CCCCC2)c1 | 8.81%
31 | Cc1nn(C)c(C)c1/C=C/C(=O)O | 16.3%
32 | Cc1cc2nc3c(=O)n(Cc4ccccc4)c(=O)[nH]c3nc2cc1N | 6.76%
33 | C=CCNC(=O)/C(=C/c1ccco1)NC(=O)c1ccc(Br)o1 | -4.84%
34 | Cc1ccccc1Oc1ccccc1N | -9.92%
35 | CCCCCCC(=O)N/N=C/Cc1ccccc1 | -7.71%
36 | Cc1cc(Cl)c(S(=O)(=O)NCc2cccnc2)cc1OCC(=O)NC1CCCCC1 | -53.2%
37 | Nc1nonc1C(=Nc1ccc(Br)cc1)NO | 8.76%
38 | COc1ccc(C(=O)O)cc1NCc1ccc(C)s1 | 27%
39 | COc1cc(OC)c(C2NC(=O)CCC2[N+](=O)[O-])cc1OC (stereo not drawn) | 9.82%
40 | O=C(Nc1ccccc1Cl)c1ccc2nc(N3CCOCC3)sc2c1 | 7.2%
41 | COc1ccc(/C(N)=N/OC(=O)CSc2ccccc2)cc1OC | -0.5%
42 | COc1ccc(/C=C/C(=O)Nc2sc(Cc3ccccc3)c(C)c2C(N)=O)cc1 | 2.59%
43 | O=C(NCc1nnnn1-c1ccc(F)cc1)c1ccc([N+](=O)[O-])o1 | -23.6%
44 | CC(=O)c1ccccc1C(=O)NCc1cccnc1 | 11.6%
45 | CCOC(=O)N1CCC(N2CCN(S(=O)(=O)c3ccc(OC)cc3)CC2)CC1.O=C(O)C(=O)O | -8.89%
